In PubChem BioAssay AID1508624 (National Center for Advancing Translational Sciences (NCATS), 2021):
The whole screen tested about 48,000 compounds, of which about 120 (0.25%) were called active. The inconclusive results got no clear call from the source; some entries with a clear call stand among them for comparison. Calls follow the shape of the dose curve; as a rule, active = well fitted activation curve with a large enough effect; inconclusive = small, poorly fitted or top-dose-only effect, or another doubt; inactive = no such curve, though single readings can be large or run the other way. Potencies beside an inconclusive call are fits to weak or partial responses and may not hold up.

Experiment: Primary qHTS for Identification of Small Molecule Activators of Huntingtin-Antisense Promoter Activity; also: nearly all actives have a fitted effect of over 55% in size
Conditions: HEK293 HTT-AS promoter firefly luciferase reporter, 24 h; activity change, positive = activation: at 57.5 µM (top of the series), percent change from vehicle, -100% = no light
Procedure, shortened: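 Firefly luciferase readout (Dual-Glo, 10 min RT) after 24 h, 37 °C compound exposure (final up to 57.5 uM) of HEK293 reporter cells cultured 24 h beforehand; PTC124 at 50 uM final as control inhibitor; activity scaled vehicle 0%, zero RLU -100%.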
Potency is read from the fitted curve at half-maximal effect; tags tell the direction and shape of the fitted curve.

Activity change, positive = activation, inactive:
CCOC(=O)c1ccc(NC(=O)Nc2ccc3snnc3c2)cc1 -29%
COc1ccc(NC(=O)Cc2csc(COc3cccc(C)c3)n2)cc1OC -14.2%
Cc1onc(-c2ccc(Br)cc2)c1C(=O)Nc1ccc(Br)cc1F 12.1%
O=C(Nc1ncc([N+](=O)[O-])s1)c1cccs1 -76.9%
COC(=O)c1ccc(NC(=O)CCCC(=O)OCC(=O)c2ccc(Cl)cc2)cc1 0%
O=C(CS(=O)(=O)c1cccc2nsnc12)NCc1ccccc1 -4.01%
Cc1ccc(NS(=O)(=O)c2ccc3nc(-c4ccccc4)[nH]c3c2)c(Br)c1 -33.7%
Clc1ccc(C(c2ccc(Cl)cc2)n2cc[n+](CC(OCc3ccc(Cl)cc3Cl)c3ccc(Cl)cc3Cl)c2)cc1 (configuration not stated) -57.4%
CCCN1C(=O)C(Cc2nc3ccccc3c(=O)n2-c2ccc(OC)cc2)c2cc(C)ccc21 (configuration not stated) -26.3%
Cc1cc(Cl)ccc1NC(=O)CCCn1nc(C)c2c(C)n(-c3ccccc3)nc2c1=O -20%
CC1(C)S[C@@H]2[C@H](NC(=O)C(c3ccccc3)S(=O)(=O)O)C(=O)N2[C@H]1C(=O)O (some centres not stated) -4.28%
COc1cccc(/C=C/C(=O)Nc2ccc3nc(N4CCN(C)CC4)cc(C)c3c2)c1OC -16.7%
COc1cccc(Cn2c(CNC(=O)c3cc([N+](=O)[O-])ccc3Cl)nc3cccnc32)c1 -33.1%
Cc1cccc(-n2ncc3c(Nc4ccc(C)c(Cl)c4)ncnc32)c1 23.6%
CCn1c(=O)cc(SCC(=O)NCc2ccc(OC)cc2OC)c2ccccc21 -6.51%
CCOCCCn1c(=N)c(C(=O)NCc2ccco2)cc2c(=O)n3ccccc3nc21 -11%
CCc1ccc(NC(=O)CSc2nc(-c3ccccc3)c(C#N)c(=O)[nH]2)cc1 -3.34%
CC(=O)c1ccc(N2CCN(c3ncnc4onc(C)c34)CC2)cc1 -58.4%
Cc1nn(C(C)C(=O)NC2CCC(C)CC2)c(=O)c2c1sc1ccccc12 (configuration not stated) -4.97%

Activity change, positive = activation, inconclusive:
CC(C)Cn1c(=O)c2ccccc2n2c(CCC(=O)Nc3ccc(F)cc3)nnc12 -20.3% [activator]
O=C(CCNS(=O)(=O)c1ccc2c(c1)CCN2C(=O)C1CC1)N1CCN(c2ccccc2F)CC1 -41% [activator]
Cc1c(-c2nc(-c3ccccc3F)no2)nnn1-c1cc(F)ccc1F -61.6% [activator]

Potency, active:
CC(C)c1nn2c(=O)cc(COC(=O)c3cccs3)nc2s1 3.98 µM

Potency, inconclusive:
Cc1cc2n(n1)CCCN2C(=O)Nc1ccc(Cl)cc1 8.91 µM [activator, partial curve, poor fit]
COc1ccccc1-c1nnc(SCC(N)=O)o1 15.8 µM [activator, single point]
COc1ccc(-c2cn3c(n2)sc2cc(C(=O)NCc4cccs4)ccc23)cc1 4.47 µM [activator, partial curve]
COc1ccc(-c2nc3ccc(NS(C)(=O)=O)cc3o2)cc1 1.26 µM [activator, full curve, poor fit]
COc1ccc(Nc2ncnc3c2nc2n3CCCCC2)cc1 1.58 µM [activator, partial curve, poor fit]
O=C(NCc1cccc(F)c1)c1ccc(NC(=O)c2nsc3ccccc23)cc1 0.178 µM [activator, full curve, poor fit]
Cc1ccc(C(=O)Nc2c(C)nc3ccccn3c2=O)cc1C 20 µM [activator, single point]
CCCOc1cccc(C(=O)Nc2cc(-c3ccccc3)no2)c1 31.6 µM [activator, partial curve, poor fit]
CC(C)(C)c1ccc(C(=O)Nc2onc3c2CCCC3)cc1 1.58 µM [activator, partial curve, poor fit]
CCCS(=O)(=O)Nc1cccc(-c2cn3ccc(C)cc3n2)c1 4.47 µM [activator, full curve]
COc1ccc(C(=O)COC(=O)c2cc(-c3cccs3)nc3ccccc23)cc1 31.6 µM [activator, single point]
Cc1ccc(CNC(=O)Cc2csc3ccccc23)cc1 35.5 µM [activator, partial curve, poor fit]
CC(C)C(=O)Nc1nc2c(s1)CC(C(C)(C)C)CC2 (configuration not stated) 2.51 µM [activator, partial curve, poor fit]
CC(C(=O)O)c1ccc(/C=C2\CCCCC2=O)cc1 (configuration not stated) 7.94 µM [activator, partial curve]
Cc1oc2ncnc(N3CCOCC3)c2c1C(=O)NCCc1ccccc1 15.8 µM [activator, single point]
CC(C)NC(=O)c1ccc2c(c1)nc1n2CCCCC1 11.2 µM [activator, partial curve, poor fit]
Cc1c(C(=O)Nc2ccc(F)c(Cl)c2)sc2nc3n(c(=O)c12)CCC3 1.41 µM [activator, full curve, poor fit]
Cc1ccc(NC(=O)/C=C/c2ccco2)cc1F 0.891 µM [activator, full curve, poor fit]
COCCNc1oc(-c2ccc(OC)cc2)nc1C#N 15.8 µM [activator, single point]
CSc1ccc(CCNC(=O)c2cc3cc4cc(C)ccc4nc3s2)cc1 28.2 µM [activator, single point]
CCCCN(C)S(=O)(=O)c1ccc(C(=O)Nc2ccc(-c3nc4ccc(C)cc4s3)cc2)cc1 0.1 µM [activator, full curve, poor fit]
O=c1c2sc3ccccc3c2n(Cc2cccc(F)c2)c(=O)n1CCc1ccccc1 22.4 µM [activator, single point]
CCOC(=O)C1CCN(C(=O)c2cc3sc(C)cc3n2C)CC1 28.2 µM [activator, partial curve, poor fit]
O=C(C=Cc1cccc(S(=O)(=O)Nc2ccccc2)c1)NO 14 µM [activator, full curve]
CCOc1ccc(NC(=O)CSc2ncc3c(n2)-c2ccccc2N(Cc2ccccc2C)S3(=O)=O)cc1 39.8 µM [activator, single point]
O=C(c1cc2ccc3cccnc3c2[nH]1)N1CCN(c2ccccc2)CC1 31.6 µM [activator, single point]
COc1ccc(NC(=O)CSc2nnc(NC(=O)Nc3ccccc3)s2)cc1OC 10 µM [activator, partial curve, poor fit]
CCSc1ccccc1C(=O)Nc1ccc(-c2nc3ccccc3s2)c(O)c1 2 µM [activator, full curve, poor fit]
O=C(CSc1nnc2ccc3ccccc3n12)Nc1ccccc1Cl 25.1 µM [activator, single point]
Cc1ccc(-n2ncc3c(Nc4cccc(C)c4)ncnc32)cc1 1.78 µM [activator, full curve, poor fit]
Cc1ccc2nc(-c3ccncc3)c(Nc3ccccc3C)n2c1 5.01 µM [activator, partial curve]
CCC(C)NC(=O)c1cn(CC)c2ccc(S(=O)(=O)N3CCCCC3)cc2c1=O (configuration not stated) 2.51 µM [activator, single point]
CCn1cc(C(=O)NCc2ccccc2)c(=O)c2cc(S(=O)(=O)N3CCCCC3)ccc21 5.62 µM [activator, single point]
Cc1cccc(-c2nc3c4ccccc4nc(NCc4ccccc4Cl)n3n2)c1 20 µM [activator, single point]
CCOc1cc2sc(N3CCC(C(=O)Nc4ccc(C)cc4)CC3)nc2cc1Br 1.58 µM [activator, partial curve, poor fit]
Cc1ccc(NC(=O)c2cc3c([nH]c2=O)CC(C)(C)CC3=O)c(C)c1 0.158 µM [activator, full curve, poor fit]
CCc1ccc(OCC(=O)Nc2ccc(-c3nc4ncccc4o3)cc2)cc1 25.1 µM [activator, single point]
O=c1oc2cc(O)ccc2cc1-c1nnc(Nc2ccccc2F)s1 1.41 µM [activator, partial curve, poor fit]
COc1cccc(OCc2cc(=O)n3c(-c4ccccc4)csc3n2)c1 5.62 µM [activator, full curve]
COC(=O)c1cccc(NC(=O)c2nsc3ccccc23)c1 0.178 µM [activator, full curve, poor fit]
CC(C)COC(=O)c1ccc(N)cc1 12.6 µM [activator, partial curve, poor fit]
Cc1ccc(NC(=O)c2sc3nc[nH]c(=O)c3c2C)cc1Cl 1.78 µM [activator, full curve, poor fit]
Clc1ccc(OCc2nc3ccccc3n2Cc2ccccc2)c(Cl)c1 14.1 µM [activator, partial curve, poor fit]
COC(=O)Cn1c(=NC(=O)c2ccc3c(c2)OCCO3)sc2ccccc21 7.94 µM [activator, partial curve]
